# Results as given in PubChem BioAssay AID1345083 (National Center for Advancing Translational Sciences (NCATS), 2018).
# Hit rate of the full screen: of about 94,000 compounds, about 6,200 (6.6%) were called active. The inconclusive results got no clear call from the source; some entries with a clear call stand among them for comparison. The call rests on the fitted dose curve; in most records, active means well fitted inhibition curve with a large enough effect; inconclusive means small, poorly fitted or top-dose-only effect; inactive means flat fitted curve, though single readings scatter. A potency beside an inconclusive call is a rough fit, not a confirmed value.
# Assay: Cytotoxic Profiling in HEK 293 Cell Line of Diverse Libraries Using Quantitative High-Throughput Screening; further: nearly all actives have a fitted effect of over 60% in size
# Settings: HEK 293 viability, ATP luminescence (CellTiter-Glo), 48-72 h; activity change, negative = cytotoxicity: at 115 µM (top of the series) unless noted; series mostly up to 115 µM
# Procedure, shortened: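 Cytotoxicity was scored by loss of ATP-coupled luminescence (CellTiter-Glo) in HEK 293 cells. Compound treatment ran 48 or 72 hr at 37 degree Celsius, 5% CO2, 95% humidity.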
# On the % scale 0 is the no-effect control and ±100 the full control effect; potency means the concentration at half of the fitted maximal effect; tags describe the fitted curve by direction and shape.
SMILES,Potency,"activity change, negative = cytotoxicity",outcome
O=C(NC1CC1)C1(F)CCN(S(=O)(=O)c2ccccc2)CC1,"inconclusive: 56.2 µM [inhibitor, partial curve, poor fit]",,
Cc1nc2scc(CC(=O)N3CCOCC3)n2c(=O)c1-c1cc(C)n(-c2ccc(C(C)C)cc2)n1,,inactive: -22.7%,
Cc1ccc2c(c1)SCC(=O)N2CC(=O)N(C)Cc1ccoc1,,,inactive
C=CCCC(CN1CCCOCC1)Oc1ncc(C)c(N(C)C)n1 (configuration not stated),"inconclusive: 15.8 µM [inhibitor, full curve, poor fit]",,
C=CCNC(=O)CCc1c(C)nn(-c2ccccc2)c1Oc1ccccc1,"inconclusive: 39.8 µM [inhibitor, full curve, poor fit]",,
COc1ccccc1CC(=O)Nc1ccc2ncnc(N3CCCC3)c2c1,"inconclusive: 89.1 µM [inhibitor, single point]",,
CCOc1ccccc1CN1CCC2(CC1)Cc1ccccc1CNC2=O,"inconclusive: 89.1 µM [inhibitor, partial curve, poor fit]",,
O=C(c1ccccn1)N1CCC(Cc2ccc(COc3ccncc3)cc2)CC1,"inconclusive: 2.82 µM [inhibitor, full curve, poor fit]",,
CCn1ccnc1CN(C)C(=O)c1cc(-c2cnc(N)nc2)nc2c(C)cccc12,,inactive: -5.63%,
COc1cccc(-c2cc3c(=O)n(CCNC(=O)c4cc(F)ccc4F)ccn3n2)c1,"inconclusive: 35.5 µM [inhibitor, partial curve, poor fit]",,
CCN(CC)C(=O)Cc1cccn1-c1ccc(Cl)cc1,"inconclusive: 79.4 µM [inhibitor, partial curve, poor fit]",,
COc1ccc2c(c1)C=C(CN1CCCC(O)(CN(C)C)C1)CO2 (configuration not stated),"inconclusive: 70.8 µM [inhibitor, single point]",,
CCn1cc(CNC(=O)c2ccc(OC3CCN(S(=O)(=O)N(C)C)CC3)cc2)cn1,"inconclusive: 39.8 µM [inhibitor, partial curve, poor fit]",,
CNC(=O)c1cc(C)nc2onc(C3CCN(C(=O)COC)C3)c12 (configuration not stated),,inactive: 4.11% [at 172 µM],
NC(=O)CNC(=O)C1=C[C@@H](NC(=O)Cc2cccs2)[C@@H](O)[C@H](O)C1,,inactive: 1.86% [at 172 µM],
COc1ccc(NC(=O)CCC2CCCN(C(=O)CC3=CCCCC3)C2)cc1Cl (configuration not stated),"inconclusive: 44.7 µM [inhibitor, partial curve, poor fit]",,
O=C(Cc1cccnc1)N1CCC(N2CC(OCC3CC3)C23CCOCC3)CC1 (configuration not stated),,inactive: -9.72%,
CCN(CC)C(CNc1nc(CCN)nc2ccccc12)c1ccco1 (configuration not stated),"inconclusive: 50.1 µM [inhibitor, partial curve, poor fit]",,
COc1ccc(C(=O)NCCc2noc(-c3ccccc3)n2)cc1F,"inconclusive: 89.1 µM [inhibitor, single point]",,
Cc1noc(C)c1-c1cc2c(cc(C)n2C)c(-c2cccnc2)n1,"inconclusive: 79.4 µM [inhibitor, partial curve]",,
NC(=O)C1CCN(c2cc(-c3noc([C@@H]4CCCN4Cc4ccc(F)c(F)c4)n3)ccn2)CC1,"inconclusive: 44.7 µM [inhibitor, partial curve, poor fit]",,
Cc1ccc(CNC(=O)c2ccc3c(c2)CN(Cc2scnc2C)CCO3)cc1,"inconclusive: 50.1 µM [inhibitor, partial curve, poor fit]",,
COc1ccc(CN2CC[C@H](c3nc4ccc(OC)cc4[nH]3)C2)cc1,"inconclusive: 100 µM [inhibitor, partial curve, poor fit]",,

SMILES,Potency,"activity change, negative = cytotoxicity",outcome
O=C(c1ccc(-c2ccccc2CO)nc1)N1CCC(CCc2ccccc2)CC1,"inconclusive: 56.2 µM [inhibitor, partial curve, poor fit]",,
O=C(CNC(=O)c1ccc(-c2cnc3ccccc3c2)cc1)NCc1ccc(F)cc1F,"inconclusive: 35.5 µM [inhibitor, full curve]",,
CC(C)c1ccc(CN2CCCC3(CCN(c4ncccc4C(N)=O)C3)C2)cc1 (configuration not stated),active: 39.8 µM,,
COc1ncccc1-c1cnc2[nH]cc(CC(=O)NCc3ccco3)c2c1,"inconclusive: 56.2 µM [inhibitor, partial curve, poor fit]",,
CN(C)C(=O)c1cccnc1OC1CCN(C(=O)c2cccc(F)c2)C1 (configuration not stated),,inactive: -5.2%,
NC(=O)Cc1c[nH]c2ncc(-c3cccc(OC(F)(F)F)c3)cc12,"inconclusive: 70.8 µM [inhibitor, partial curve, poor fit]",,
COc1cccc(C2C(C(=O)Nc3ccccc3)=C(C)N=C3SC=C(CC(=O)NCC(C)C)N32)c1 (configuration not stated),"inconclusive: 56.2 µM [inhibitor, partial curve, poor fit]",,
CCn1cc(S(=O)(=O)N2CCC(CCc3nc(C4CCOCC4)no3)CC2)cn1,"inconclusive: 50.1 µM [inhibitor, partial curve, poor fit]",,
Cn1nc(C(=O)Nc2cccc(-c3nnc4n3CCCC4)c2)c2ccccc21,"inconclusive: 50.1 µM [inhibitor, partial curve, poor fit]",,
COc1ccccc1CC(=O)N1CCCc2ncc(C(=O)Nc3nc(C)cs3)cc21,"inconclusive: 89.1 µM [inhibitor, partial curve, poor fit]",,
CCN(CC)Cc1cnc2c(C(=O)N3CCC(N4CCCC4)CC3)cnn2c1,"inconclusive: 89.1 µM [inhibitor, single point]",,
O=C(NC1CCCN(Cc2ccc(-c3cncnc3)cc2)C1)c1ccc(Cl)nc1 (configuration not stated),"inconclusive: 50.1 µM [inhibitor, partial curve, poor fit]",,
COc1cccc(S(=O)(=O)N2CC(n3cc(C(=O)NCC4CC4)nn3)C2)c1,,inactive: -7.27%,
CC(=O)NCC(=O)N1Cc2ccccc2CC2(CCCCN2CC2CCNCC2)C1 (configuration not stated),,,inactive
O=C1Nc2ccccc2C12CN(CC1CCCCC1)C2,,inactive: -26.9% [at 172 µM],
CN1Cc2cccn2CC1CNC(=O)c1ccsc1 (configuration not stated),,inactive: 3.96%,
Cc1ccccc1CNC(=O)c1ccc2c(c1)N(C)C1CCCCN1C2=O (configuration not stated),"inconclusive: 79.4 µM [inhibitor, single point]",,
O=C(N1CC(Oc2ccc(-c3noc(-c4ccccc4)n3)cc2)C1)C1(c2ccccc2)CC1,,inactive: -14.6%,
CC(C)CCNC(=O)C1CCN(C(=O)c2ncn3c2COC(c2ccc(F)cc2)C3)CC1 (configuration not stated),,inactive: -0.879%,
O=C(Cn1cccc1-c1nc(-c2ccc(F)cc2)no1)NCc1ccc(F)cc1,"inconclusive: 50.1 µM [inhibitor, partial curve, poor fit]",,
O=C(CCC1CCCC1)N1CCCC1c1nc(CCOCC2CC2)no1 (configuration not stated),"inconclusive: 89.1 µM [inhibitor, single point]",,
C#CCNC(=O)c1nc2cccnc2n(C2CC2)c1=O,,inactive: -9.99% [at 172 µM],
OC(COc1ccccc1CNC1(c2ccccc2)CC1)CN1CCCCC1 (configuration not stated),"inconclusive: 17.8 µM [inhibitor, full curve, poor fit]",,

SMILES,Potency,"activity change, negative = cytotoxicity",outcome
CC(C)(C)c1coc([C@@H]2COCCN2Cc2cnc3ccccc3c2)n1,"inconclusive: 79.4 µM [inhibitor, partial curve, poor fit]",,
COc1ccccc1NC(=O)C1CN(C2CCCC2)C(=O)N1 (configuration not stated),,inactive: -18.1% [at 172 µM],
CC(C)CN1CC[C@H](c2nc3c(C(N)=O)cccc3[nH]2)C1,"inconclusive: 100 µM [inhibitor, partial curve]",,
O=C(NC[C@H]1OC[C@@H](NC2CCCCC2)[C@@H]1O)c1ccc(F)cc1,,inactive: -12.1% [at 172 µM],
COc1cc(OC)cc(C(=O)N2CCC(Cc3nc(-c4ccc(F)cc4)no3)CC2)c1,active: 31.6 µM,,
Cc1ccc2c(C)c(C(=O)NC3CC(c4nnc(CN(C)C)n4C)C3)oc2c1 (configuration not stated),"inconclusive: 89.1 µM [inhibitor, single point]",,
c1cc(-c2noc([C@@H]3Cc4nc[nH]c4CN3CC3CCCCC3)n2)ccn1,"inconclusive: 112 µM [inhibitor, partial curve, poor fit]",,
CCC1c2nccn2CCCN1C(=O)c1cc(C)n(CCCOC)c1C (configuration not stated),,inactive: -3.32%,
O=C(C1CC1)N1CCC(C(=O)N2CCC(c3ccccc3)CC2)CC1,,inactive: -25.6% [at 172 µM],
COc1cccc(C(=O)NC2CCN(C(=O)c3ccc(-c4cccs4)cc3)CC2)c1,,inactive: -17.7%,
COc1ccc(C(=O)NC2CCN(Cc3ccc(-c4ccsc4)cc3)C2)cc1 (configuration not stated),"inconclusive: 35.5 µM [inhibitor, full curve]",,
N#Cc1cccc(CN2CC(CNc3ccccc3)C3(C2)CN(c2ccccc2)C3)c1 (configuration not stated),"inconclusive: 25.1 µM [inhibitor, full curve, poor fit]",,
Cc1cccc(-n2nc(CC(N)=O)nc2Cn2cc(C)c(=O)[nH]c2=O)c1C,,inactive: -0.0894%,
CC(C)CNC(=O)C1COC2(CCN(C(=O)c3ccccc3F)CC2)N1C(=O)c1cccc(F)c1 (configuration not stated),,inactive: 2.61%,
Cn1ncc2c(C(=O)NCc3cccc(F)c3)cc(-c3ccc(Cl)cc3Cl)nc21,"inconclusive: 50.1 µM [inhibitor, partial curve, poor fit]",,
Cc1ccsc1C(=O)NC1CCN(c2cnn(CC3CC3)c(=O)c2)CC1,"inconclusive: 35.5 µM [inhibitor, partial curve]",,
N#CC1CCN(C(=O)C2CN(c3ccccc3)C(=O)N2)CC1 (configuration not stated),,inactive: 1.82% [at 172 µM],
COCCCNC(=O)C(NC(=O)c1ccccc1)C1CCN(C(=O)c2ccc(Cl)cc2)CC1 (configuration not stated),,inactive: 2.62%,
CCc1ccc(N2CC(c3noc(C4(c5ccc(OC)cc5)CC4)n3)CC2=O)cc1 (configuration not stated),active: 44.7 µM,,
CC(C)(C)c1ccc(NC(=O)O[C@@H]2CO[C@H]3[C@@H]2OC[C@@H]3Nc2nccc(C(C)(C)C)n2)cc1,"inconclusive: 89.1 µM [inhibitor, single point]",,
CN1Cc2cccn2CC1CNC(=O)c1ccccc1 (configuration not stated),,,inactive
